Results: PubChem BioAssay AID1347417 (National Center for Advancing Translational Sciences (NCATS), 2020)
About 5,300 (4.4%) of roughly 120,000 compounds were called active. The inconclusive results got no clear call from the source; some entries with a clear call stand among them for comparison. Calls come from the whole dose curve; as a rule, active = well fitted inhibition curve with a large enough effect; inconclusive = small, poorly fitted or top-dose-only effect; inactive = no such curve, though single readings can be large or run the other way. Potencies beside an inconclusive call are fits to weak or partial responses and may not hold up.

Experiment: qHTS Primary assay for Inhibitors of Plasmodium falciparum Dd2 growth in vitro; note: nearly all actives have a fitted effect of over 65% in size;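 for activity, negative = inhibition: plate controls were DMSO vehicle for no effect and reference drug for full effect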
Conditions: P. falciparum Dd2 growth, SYBR Green, 72 h; activity, negative = inhibition: at 28.9 µM (top of the series) unless noted; series mostly up to 28.9 µM
In short: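 Readout: SYBR Green fluorescence, 485 nm excitation, 535 nm emission, after ~16 h lysis at 37C. Before that, Dd2-infected red cells (2.5% hematocrit) grew 72 h with compound, 29 uM top final concentration.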
Potency is the fitted concentration of half-maximal effect; tags give direction and shape of the fitted curve.

Compound | activity, negative = inhibition | Potency | outcome
N#C/C(=C\c1ccc(O)cc1)C(=O)NCC1CCCO1 (stereo unspecified) | inactive: 19.5% | – | –
CCN1CC(c2ccccc2)CC2(CCN(S(=O)(=O)N(C)C)CC2)C1 (stereo unspecified) | – | inconclusive: 12.6 µM [inhibitor, single point] | –
COc1ccc2nc([C@H]3CCN(Cc4ccncc4)C3)[nH]c2c1 | – | – | inactive [at 44.1 µM]
Cc1cc(F)ccc1NC(=O)CCn1ccn2nc3c(c2c1=O)CCCC3 | – | inconclusive: 15.8 µM [inhibitor, single point] | –
CNC(C)c1ccc(Cl)cc1 (stereo unspecified) | – | inconclusive: 22.4 µM [inhibitor, single point] | –
Cc1noc(-c2ccc3c(c2)OCO3)c1C(=O)NCCCc1ccccc1 | inactive: -16.9% | – | –
O=c1cc(-c2ccncc2)oc2c(-c3cccc4[nH]ccc34)nccc12 | – | active: 10 µM | –
COc1ccc(C2(C(=O)N3CCCCCNC(=O)CC3c3ccccc3)CC2)cc1 (stereo unspecified) | inactive: -29.2% | – | –
COc1ccc(C2C=C(c3ccccc3)Nc3nc(NC(C)=O)nn32)cc1 (stereo unspecified) | inactive: -29.9% | – | –
O=C(Cc1ccccc1)N1[C@H]2CC[C@@H]1c1cnc(-c3ccccc3)nc1C2 | – | – | inactive
Cc1cc(C)cc(NC(=O)Cn2c(-c3ccccc3)nc(C)c(CCO)c2=O)c1 | – | inconclusive: 2.24 µM [inhibitor, full curve, poor fit] | –
O=C(NC[C@H]1C[C@@H]2CCN1C[C@@H]2CN1CCSCC1)c1ccccc1 | – | inconclusive: 20 µM [inhibitor, single point] | –
CCc1ccc(S(=O)(=O)c2nnn3c2nc(Nc2ccc(F)cc2)c2cc(Cl)ccc23)cc1 | – | active: 1.26 µM | –
CCC(C)NC(=O)CCSc1nc(-c2ccc(OC)cc2)cc(C(F)(F)F)n1 (stereo unspecified) | – | active: 11.2 µM | –
COCC(=O)N[C@@H]1CN(Cc2ccccc2F)C[C@H]1CO | inactive: -5.29% | – | –
CCOC(=O)C1CCN(C(=O)CC(c2ccc3c(c2)OCO3)c2c[nH]c3ccccc23)CC1 (stereo unspecified) | – | inconclusive: 2.82 µM [inhibitor, partial curve] | –
Cc1ccc(-c2cnc([C@@H]3COCCN3CC3CC3)[nH]2)cc1 | – | – | inactive [at 44.1 µM]
CCNC(=O)[C@@H]1C[C@H](N)CN1C(=O)c1cnc(-c2cccnc2)nc1C | inactive: -5.89% | – | –
COc1cc(=O)n2c(c1C(=O)Nc1ccccc1C)CCCC2 | inactive: 19.1% | – | –
Cc1ccc(C)c(C(=O)N2CCCN(C)c3ccccc32)c1 | – | inconclusive: 17.8 µM [inhibitor, single point] | –
CCOc1cccc(CN2CCCCC23Cc2ccccc2CNC3=O)c1 (stereo unspecified) | – | inconclusive: 11.2 µM [inhibitor, single point] | –
Cc1c(F)cccc1NC(=O)N1C[C@@H](F)C[C@H]1C(=O)N1CCOCC1 | inactive: 33.5% | – | –

Compound | activity, negative = inhibition | Potency | outcome
CN(C)C[C@@H]1CN(c2ncccn2)C[C@H]1NS(=O)(=O)Cc1ccc(F)cc1 | – | inconclusive: 10 µM [inhibitor, single point] | –
Fc1ccc(OC2CN(CC3CCCCC3)C2)c(F)c1 | – | inconclusive: 11.2 µM [inhibitor, single point] | –
Cc1oc2c(c1C(=O)NC1CCOC3(CCOCC3)C1)C(=O)CCC2 (stereo unspecified) | inactive: 21% | – | –
CCOC(=O)c1cc(-c2ccccc2)n(-c2cccc(C(=O)Nc3cc(OC)cc(OC)c3)c2)c1C | – | inconclusive: 15.8 µM [inhibitor, single point] | –
COc1ccc(CN(C(=O)c2ccco2)c2ccc(CC(=O)NCc3ccc(F)cc3)cc2)cc1 | – | inconclusive: 10 µM [inhibitor, partial curve, poor fit] | –
O=C(c1cccnc1)N1CCOC[C@H](Oc2ccc(C(F)(F)F)cn2)C1 | – | inconclusive: 2.24 µM [inhibitor, partial curve, poor fit] | –
CC(C)C1=NOC2(CCN(Cc3ccc(C(F)(F)F)cc3)CC2)C1 | inactive: -9% [at 44.1 µM] | – | –
COc1cccc(CNC(=O)CN(c2ccc(C(C)C)cc2)S(=O)(=O)c2c(C)noc2C)c1 | – | inconclusive: 10 µM [inhibitor, single point] | –
Cc1cnc(CCNC(=O)c2ccnn2C)n1CC1CC1 | inactive: -1.4% | – | –
O=C(COc1ccc(Cl)cc1)N1C[C@@H](CO)[C@H](c2ccccn2)C1 | – | inconclusive: 0.251 µM [inhibitor, full curve] | –
COc1ccc(CN2Cc3[nH]cnc3C[C@H]2c2nc(-c3ccc4ccccc4c3)no2)cc1 | – | inconclusive: 1 µM [inhibitor, full curve, poor fit] | –
CCC(=O)N1CCc2cc(Br)cc(S(=O)(=O)N3CCCC(C(=O)Nc4cccc(F)c4)C3)c21 (stereo unspecified) | – | active: 3.55 µM | –
CCOC(=O)CSc1nc2sc3c(c2c(=O)n1-c1ccccc1)CCC(C(C)(C)C)C3 (stereo unspecified) | – | inconclusive: 10 µM [inhibitor, single point] | –
CCOc1ccc(CN2C[C@@H]3C(=O)N(CCc4ccccc4)C(=O)[C@@H]3C2)cc1OC | – | inconclusive: 7.94 µM [inhibitor, partial curve, poor fit] | –
CCOc1ccc(NC(=O)c2oc3ccccc3c2NC(=O)c2cc(C)cc(C)c2)cc1 | – | inconclusive: 0.0316 µM [inhibitor, full curve, poor fit] | –
COc1ccc(CCNC(=O)Cn2ncc3c(=O)oc4ccccc4c32)c(OC)c1 | inactive: 25.3% | – | –
COc1cccc(CCC(=O)N2CCC(Cc3nc(C4CC4)n[nH]3)CC2)c1 | – | inconclusive: 20 µM [inhibitor, single point] | –
COc1cccc(CN2CCCC3(CNc4ccccc4[S+](=O)([O-])N3)C2)c1 (stereo unspecified) | – | inconclusive: 5.01 µM [inhibitor, partial curve, poor fit] | –
COc1ccc(CC(=O)NCc2ccc3c(c2)CCN3C(=O)c2ccc(Cl)cc2)cc1 | inactive: -3.22% | – | –
O=C(Nc1ccc2c(N3CCCCC3)ncnc2c1)C1CCC1 | – | inconclusive: 12.6 µM [inhibitor, single point] | –
CCc1ccc2oc(-c3cc(NC(=O)c4cccnc4)cc(C)c3O)nc2c1 | – | inconclusive: 3.98 µM [inhibitor, single point] | –
CCN(CCCNC(=O)c1cc2c(Cl)nc3ccccc3c2s1)Cc1ccccc1 | – | inconclusive: 3.98 µM [inhibitor, single point] | –

Compound | activity, negative = inhibition | Potency | outcome
CCN(Cc1ccncc1)C(=O)c1cc(CN2CCC(Cc3ccccc3)CC2)on1 | – | inconclusive: 12.6 µM [inhibitor, partial curve, poor fit] | –
CC(=O)N1c2ccc(S(=O)(=O)NCCC(=O)Nc3ccc(Br)c(C)c3)cc2CC1C (stereo unspecified) | – | inconclusive: 0.891 µM [inhibitor, single point] | –
CCN(CC)c1sc(S(=O)(=O)c2ccccc2)nc1S(=O)(=O)c1ccc(C)cc1 | – | inconclusive: 17.8 µM [inhibitor, single point] | –
COc1ccc(NC(=O)Cn2ncc3c2-c2ccccc2OC3)cc1Cl | – | inconclusive: 15.8 µM [inhibitor, single point] | –
Cc1cccc(NC(=O)c2sc3nc(N4CCOCC4)c4c(c3c2N)CC(C)(C)OC4)c1 | – | inconclusive: 11.2 µM [inhibitor, single point] | –
O=C(CSc1nc2c([nH]c3ccccc32)c(=O)n1-c1ccccc1)Nc1ccc2c(c1)OCCO2 | – | inconclusive: 11.2 µM [inhibitor, single point] | –
COc1ccc(N2CCN(c3oc(-c4ccc(COc5cccc(C)c5)o4)nc3C#N)CC2)cc1 | – | inconclusive: 10 µM [inhibitor, partial curve, poor fit] | –
CC(C)CCN1CCC2(C1)C(=NC1CCCCC1)NC(=O)N2c1cc(F)cc(F)c1 (stereo unspecified) | – | active: 8.91 µM | –
C=CCN(C)C(=O)[C@@H]1Cc2cn(Cc3nccn3C)c3cccc(c23)[C@H](CC(C)C)N1 | – | inconclusive: 31.6 µM [inhibitor, single point] | –
CCc1cnc2c(c1SCC(=O)c1ccc(OC)cc1)c(=O)n(C)c(=O)n2C | – | inconclusive: 15.8 µM [inhibitor, single point] | –
COc1ccccc1CNC(=O)CC(c1ccc(OC)c(OC)c1)N1Cc2ccccc2C1=O (stereo unspecified) | – | inconclusive: 12.6 µM [inhibitor, partial curve, poor fit] | –
Cc1ccc(Cl)cc1-n1ncc2c(N3CCCCCC3)ncnc21 | inactive: 17.5% | – | –
O=c1[nH]c(N2CCOCC2)nc2c1CCN(Cc1ccc(F)cc1F)CC2 | – | inconclusive: 3.98 µM [inhibitor, single point] | –
CC(C)CN1C(=O)COC[C@@H]1[C@H](O)c1ccc(NC(=O)COc2ccccc2)cc1 | – | inconclusive: 31.6 µM [inhibitor, single point] | –
COc1ccc(OC)c(/C=C/C(=O)Nc2ccc(C(=O)OCCC(C)C)cc2)c1 | – | inconclusive: 17.8 µM [inhibitor, single point] | –
Cc1ccccc1CN1C(=O)c2ccccc2Sc2ccc(C(=O)NC3CCCC3)cc21 | – | inconclusive: 10 µM [inhibitor, single point] | –
CNC(=O)C(C)(C)N1CCC[C@H]1C(=O)NCCN1CCCCC1 | inactive: 23.8% [at 44.1 µM] | – | –
COCC1CN(C)CC12CCN(C(=O)c1cc(C)cc(C)c1)CC2 (stereo unspecified) | – | inconclusive: 7.94 µM [inhibitor, partial curve, poor fit] | –
COc1cccc(-n2c(-c3cccc(F)c3)nc3c(cnn3-c3ccc(C)cc3)c2=O)c1 | – | inconclusive: 11.2 µM [inhibitor, single point] | –
CCCCOc1cccc(C(=O)N(Cc2cccs2)c2ccc(OC)cc2)c1 | – | active: 0.316 µM | –
CCN(CC)CCNC(=O)Nc1ccc2c(c1)N(Cc1ccccc1)C(=O)c1ccccc1S2 | – | active: 3.98 µM | –
CCN(CC)C(=O)c1sc2c(c1C)c(=O)n(-c1ccc(OC)cc1OC)c(=O)n2CC(=O)c1ccc(Cl)cc1 | – | inconclusive: 17.8 µM [inhibitor, single point] | –
